Our source for the Ki values is patent EP3858439A1 (priority 2020, dated 2021).

This assay deals with human α2δ-1 subunit of Cav2.2 calcium channel (Homo sapiens, UniProt P54289). As to the kind of experiment: Binding assay to human α2δ-1 subunit of Cav2.2 calcium channel ([3H]-Gabapentin displacement). How it is done:
Binding assay to human α2δ-1 subunit of Cav2.2 calcium channel.
Human α2δ-1 enriched membranes (2.5 µg) were incubated with 15 nM of radiolabeled [3H]-Gabapentin in assay buffer containing Hepes-KOH 10 mM, pH 7.4.
NSB (non specific binding) was measured by adding 10 µM pregabalin. The binding of the test compound was measured at either one concentration (% inhibition at 1 or 10 µM) or five different concentrations to determine affinity values (Ki). After 60 min incubation at 27 °C, binding reaction was terminated by filtering through Multiscreen GF/C (Millipore) presoaked in 0.5 % polyethyleneimine in Vacuum Manifold Station, followed by 3 washes with ice-cold filtration buffer containing 50 mM Tris-HCI, pH 7.4.
Filter plates were dried at 60 °C for 1 h and 30µl of scintillation cocktail were added to each well before radioactivity reading.
Readings were performed in a Trilux 1450 Microbeta radioactive counter (Perkin Elmer).

[1] abbreviates: read-out: Binding α2δ-1, Table 2, human α2δ-1 enriched membranes, 15 nM [3H]-Gabapentin, 60 min at 27 °C.

Structures are written as SMILES. Counter-ions that a name gives are not always drawn. Like-named read-outs stand apart in the source and are kept apart here.

Chain of human α2δ-1 subunit of Cav2.2 calcium channel (P54289 25-1103): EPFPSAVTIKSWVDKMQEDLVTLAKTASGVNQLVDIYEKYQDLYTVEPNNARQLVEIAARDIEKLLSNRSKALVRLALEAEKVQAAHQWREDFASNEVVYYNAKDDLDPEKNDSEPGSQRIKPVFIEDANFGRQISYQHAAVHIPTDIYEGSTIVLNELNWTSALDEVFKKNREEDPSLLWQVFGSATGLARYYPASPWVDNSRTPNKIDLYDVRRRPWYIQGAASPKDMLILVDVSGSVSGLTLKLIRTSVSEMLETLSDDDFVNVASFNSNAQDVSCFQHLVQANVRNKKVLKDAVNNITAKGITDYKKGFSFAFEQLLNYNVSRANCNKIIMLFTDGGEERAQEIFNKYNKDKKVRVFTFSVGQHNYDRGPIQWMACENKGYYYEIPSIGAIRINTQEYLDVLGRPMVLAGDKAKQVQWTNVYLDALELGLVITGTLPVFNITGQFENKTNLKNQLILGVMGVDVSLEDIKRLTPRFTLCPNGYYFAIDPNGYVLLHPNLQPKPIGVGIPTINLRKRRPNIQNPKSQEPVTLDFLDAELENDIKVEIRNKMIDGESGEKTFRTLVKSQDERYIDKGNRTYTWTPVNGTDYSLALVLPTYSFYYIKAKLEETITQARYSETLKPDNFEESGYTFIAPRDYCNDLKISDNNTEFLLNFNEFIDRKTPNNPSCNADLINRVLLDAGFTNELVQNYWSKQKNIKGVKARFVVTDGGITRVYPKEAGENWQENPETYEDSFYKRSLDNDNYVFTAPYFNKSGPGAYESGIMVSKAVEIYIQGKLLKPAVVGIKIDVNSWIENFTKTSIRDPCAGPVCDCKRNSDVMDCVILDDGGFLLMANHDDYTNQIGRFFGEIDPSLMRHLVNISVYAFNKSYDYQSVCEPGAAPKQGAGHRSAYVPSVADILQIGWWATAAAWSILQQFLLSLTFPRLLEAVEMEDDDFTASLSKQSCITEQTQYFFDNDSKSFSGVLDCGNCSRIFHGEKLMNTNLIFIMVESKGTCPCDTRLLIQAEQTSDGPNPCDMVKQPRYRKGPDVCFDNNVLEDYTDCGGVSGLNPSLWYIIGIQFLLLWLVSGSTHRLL

On to `CN(C)C1(c2ccccc2)CCN(C(=O)C(CNCc2ccccc2)Cc2ccccc2)CC1` (stereo not shown) [Example 76, 2-Benzyl-3-(benzylamino)-1-(4-(dimethylamino)-4-phenylpiperidin-1-yl)propan-1-one dihydrochloride], for which the Ki is 500 to 5000 nM. In addition, the Ki under setting [1] lay within 500 to 5000 nM.

`CNC[C@@H](C(=O)N1CCC(CN(C)C)(c2ccccc2)CC1)[C@@H](C)c1ccccc1` [Example 18, (2S,3R)-1-(4-((dimethylamino)methyl)-4-phenylpiperidin-1-yl)-2-((methylamino)methyl)-3-phenylbutan-1-one]: the Ki is under 500 nM.

`CC[C@@H](c1ccccc1)[C@@H](CNC)C(=O)N1CCC(NC)(c2ccc(OC)cc2)CC1` [Example 22, (2S,3R)-1-(4-(4-methoxyphenyl)-4-(methylamino)piperidin-1-yl)-2-((methylamino)methyl)-3-phenylpentan-1-one dihydrochloride]: the Ki is under 500 nM. The Ki under setting [1] was under 500 nM.

Take `CNC[C@@H](C(=O)N1CCC(c2ccc(OC)cc2)(N(C)C)CC1)[C@@H](C)c1ccccc1` [Example 12, (2S,3R)-1-(4-(dimethylamino)-4-(4-methoxyphenyl)piperidin-1-yl)-2-((methylamino)methyl)-3-phenylbutan-1-one]: the Ki was under 500 nM. The Ki under setting [1] was under 500 nM.

`CNCCC(Cc1ccccc1)C(=O)N1CCC(c2ccccc2)(N(C)C)CC1` (stereo not shown) [Example 31, 2-benzyl-1-(4-(dimethylamino)-4-phenylpiperidin-1-yl)-4-(methylamino)butan-1-one dihydrochloride]: the Ki was 500 to 5000 nM. Besides, under setting [1], the Ki lay within 500 to 5000 nM.

With `CN(C)C1(c2ccccc2)CCN(C(=O)[C@H](CN)C(C)(C)c2ccccc2)CC1` [Example 5, (S)-2-(aminomethyl)-1-(4-(dimethylamino)-4-phenylpiperidin-1-yl)-3-methyl-3-phenylbutan-1-one], the Ki lay within 500 to 5000 nM. Besides, under setting [1], the Ki was 500 to 5000 nM.

As for `CC[C@@H](c1cccc(Cl)c1)[C@@H](CNC)C(=O)N1CCC(NC)(c2ccc(F)cc2)CC1` [Example 69, (2S,3R)-3-(3-chlorophenyl)-1-(4-(4-fluorophenyl)-4-(methylamino)piperidin-1-yl)-2-((methylamino)methyl)pentan-1-one], the Ki was under 500 nM. Besides, the Ki under setting [1] was under 500 nM.

Regarding `CCNCC(Cc1ccccc1)C(=O)N1CCC(c2ccccc2)(N(C)C)CC1` (stereo not shown) [Example 30, 2-benzyl-1-(4-(dimethylamino)-4-phenylpiperidin-1-yl)-3-(ethylamino)propan-1-one dihydrochloride], the Ki is 500 to 5000 nM. Under setting [1], the Ki lay within 500 to 5000 nM.

As to `CNC[C@@H](C(=O)N1CCC(NC)(c2ccccc2)CC1)[C@@H](C)c1ccccc1` [Example 4, (2S,3R)-1-(4-(methylamino)-4-phenylpiperidin-1-yl)-2-((methylamino)methyl)-3-phenylbutan-1-one], the Ki was under 500 nM. Further, under setting [1], the Ki was under 500 nM.

In the case of `CNCC(Cc1ccccc1)C(=O)N1CCC(NC)(c2cccc(O)c2)CC1` (stereo not shown) [Example 44, 2-benzyl-1-(4-(3-hydroxyphenyl)-4-(methylamino)piperidin-1-yl)-3-(methylamino)propan-1-one dihydrochloride], the Ki fell in the range of 500 to 5000 nM. The Ki under setting [1] lay in the range of 500 to 5000 nM.

Turning to `CN(C)C1(c2ccccc2)CCN(C(=O)C(CN)Cc2ccccc2)CC1` (stereo not shown) [Example 28, 3-amino-2-benzyl-1-(4-(dimethylamino)-4-phenylpiperidin-1-yl)propan-1-one dihydrochloride], the Ki lay in the range of 500 to 5000 nM. In addition, the Ki under setting [1] fell in the range of 500 to 5000 nM.

Take `CNC[C@@H](C(=O)N1CCC(c2ccccc2)(N(C)C)CC1)[C@@H](C)c1cccc(F)c1` [Example 15, (2S,3R)-1-(4-(dimethylamino)-4-phenylpiperidin-1-yl)-3-(3-fluorophenyl)-2-((methylamino)methyl)butan-1-one]: the Ki is under 500 nM. The Ki under setting [1] is under 500 nM.

For the compound `CNCC(Cc1cccc(F)c1)C(=O)N1CCC(c2ccccc2)(N(C)C)CC1` (stereo not shown) [Example 52, 1-(4-(dimethylamino)-4-phenylpiperidin-1-yl)-2-(3-fluorobenzyl)-3-(methylamino) propan-1-one], the Ki fell in the range of 500 to 5000 nM. Also, the Ki under setting [1] fell in the range of 500 to 5000 nM.

On to `CC[C@@H](c1cccc(F)c1)[C@@H](CN)C(=O)N1CCC(NC)(c2ccccc2)CC1` [Example 11, (2S,3R)-2-(aminomethyl)-3-(3-fluorophenyl)-1-(4-(methylamino)-4-phenylpiperidin-1-yl)pentan-1-one], for which the Ki is under 500 nM. Further, under setting [1], the Ki was under 500 nM.

Regarding `CC[C@@H](c1ccccc1)[C@@H](CNC)C(=O)N1CC(c2ccccc2)(N(C)C)C1` [Example 19, (2S,3R)-1-(3-(dimethylamino)-3-phenylazetidin-1-yl)-2-((methylamino)methyl)-3-phenylpentan-1-one dihydrochloride], the Ki is 500 to 5000 nM. The Ki under setting [1] was 500 to 5000 nM.

Turning to `CNC[C@H](Cc1ccccc1)C(=O)N1CCC(c2ccccc2)(N(C)C)CC1` [Example 79, (S)-2-Benzyl-1-(4-(dimethylamino)-4-phenylpiperidin-1-yl)-3-(methylamino)propan-1-one dihydrochloride], the Ki was in the range of 500 to 5000 nM. Besides, under setting [1], the Ki lay in the range of 500 to 5000 nM.

Take `CC[C@@H](c1ccccc1)[C@@H](CN)C(=O)N1CCC(c2ccccc2)(N(C)C)CC1` [Example 8, (2S,3R)-2-(aminomethyl)-1-(4-(dimethylamino)-4-phenylpiperidin-1-yl)-3-phenylpentan-1-one dihydrochloride]: the Ki was under 500 nM. Besides, the Ki under setting [1] was under 500 nM.

For `CNC[C@H](C(=O)N1CCC(c2ccccc2)(N(C)C)CC1)[C@@H](C)c1ccccc1` [Example 86, (2R,3R)-1-(4-(dimethylamino)-4-phenylpiperidin-1-yl)-2-((methylamino)methyl)-3-phenylbutan-1-one], the Ki was under 500 nM. Also, the Ki under setting [1] is under 500 nM.

In the case of `CNC[C@@H](C(=O)N1CCC(c2ccc(F)cc2)(N(C)C)CC1)[C@@H](C)c1ccccc1` [Example 2, (2S,3R)-1-(4-(dimethylamino)-4-(4-fluorophenyl)piperidin-1-yl)-2-((methylamino)methyl)-3-phenylbutan-1-one], the Ki is under 500 nM. Besides, the Ki under setting [1] was under 500 nM.

In the case of `CC[C@@H](c1cccc(F)c1)[C@@H](CNC)C(=O)N1CCC(NC)(c2ccccc2)CC1` [Example 20, (2S,3R)-3-(3-fluorophenyl)-1-(4-(methylamino)-4-phenylpiperidin-1-yl)-2-((methylamino)methyl)pentan-1-one], the Ki was under 500 nM. For the same compound, the Ki under setting [1] is under 500 nM.

For the compound `C[C@@H](N)[C@@H](Cc1ccccc1)C(=O)N1CCC(c2ccccc2)(N(C)C)CC1` [Example 49, (2R,3R)-3-amino-2-benzyl-1-(4-(dimethylamino)-4-phenylpiperidin-1-yl)butan-1-one dihydrochloride], the Ki was over 5000 nM. Besides, the Ki under setting [1] is over 5000 nM.

Turning to `CN(C)C1(c2cccc(O)c2)CCN(C(=O)C2NCCc3ccccc32)CC1` (stereo not shown) [Example 35, (4-(dimethylamino)-4-(3-hydroxyphenyl)piperidin-1-yl)(1,2,3,4-tetrahydroisoquinolin-1-yl)methanone dihydrochloride], the Ki is over 5000 nM. Further, the Ki under setting [1] is over 5000 nM.

Turning to `CNC[C@H](C(=O)N1CCC(c2ccccc2)(N(C)C)CC1)[C@H](C)c1ccccc1` [Example 87, (2R,3S)-1-(4-(dimethylamino)-4-phenylpiperidin-1-yl)-2-((methylamino)methyl)-3-phenylbutan-1-one], the Ki is over 5000 nM. Further, under setting [1], the Ki is over 5000 nM.

Regarding `Cc1ccccc1CC(CN)C(=O)N1CCC(c2ccccc2)(N(C)C)CC1` (stereo not shown) [Example 75, 3-Amino-1-(4-(dimethylamino)-4-phenylpiperidin-1-yl)-2-(2-methylbenzyl)propan-1-one dihydrochloride], the Ki lay within 500 to 5000 nM. Besides, under setting [1], the Ki fell in the range of 500 to 5000 nM.

On to `CNCC(Cc1ccccc1)C(=O)N1CCC(c2cccc(OC)c2)(N(C)C)CC1` (stereo not shown) [Example 41, 2-benzyl-1-(4-(dimethylamino)-4-(3-methoxyphenyl)piperidin-1-yl)-3-(methylamino)propan-1-one dihydrochloride], for which the Ki fell in the range of 500 to 5000 nM. Moreover, the Ki under setting [1] lay within 500 to 5000 nM.

As to `CC[C@@H](c1ccccc1)[C@@H](CN)C(=O)N1CCC(NC)(c2ccccc2)CC1` [Example 6, (2S,3R)-2-(aminomethyl)-1-(4-(methylamino)-4-phenylpiperidin-1-yl)-3-phenylpentan-1-one dihydrochloride], the Ki is under 500 nM. In addition, the Ki under setting [1] is under 500 nM.

Turning to `CC[C@@H](c1cccc(Cl)c1)[C@@H](CNC)C(=O)N1CCC(c2ccccc2)(N(C)C)CC1` [Example 67, (2S,3R)-3-(3-chlorophenyl)-1-(4-(dimethylamino)-4-phenylpiperidin-1-yl)-2-((methylamino)methyl)pentan-1-one], the Ki is under 500 nM. In addition, under setting [1], the Ki is under 500 nM.

On to `CN(C)C1(c2ccccc2)CCN(C(=O)[C@@H](CN)[C@H]2CCCc3ccccc32)CC1` (racemic) [Example 78, (RS)-3-amino-1-(4-(dimethylamino)-4-phenylpiperidin-1-yl)-2-((RS)-1,2,3,4-tetrahydronaphthalen-1-yl)propan-1-one], for which the Ki was in the range of 500 to 5000 nM. Also, the Ki under setting [1] fell in the range of 500 to 5000 nM.
